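Cultured in 96-well plates, cells were exposed to test compound for 48 hours across five concentrations. Here, GI50 denotes the concentration required for 50% inhibition of growth. The concentration for full growth arrest is given as TGI.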
Test system: NCI-H322M lung
Experiment: NCI tumour cell line growth inhibition, 48 h

| Structure (SMILES) | GI50 [µM] | TGI [µM] |
| --- | --- | --- |
| C#C[C@]1(O)CC[C@H]2[C@@H]3CC=C4c5sc(-c6ccc(O)c(O)c6)nc5CC[C@]4(C)[C@H]3CC[C@@]21C | 5.02 | 80.8 |
| O=C(c1ccc(O)cc1)C1[C@H](c2ccccc2Br)[C@@H](c2ccccc2)NC12C(=O)Nc1ccccc12 (stereo partly drawn) | 8.8 | 17.2 |
| C=C(C)[C@@H]1CC[C@]2(C)[C@H](CC=C3[C@@H]4CC(C)(C)CC[C@]4(C(=O)N4CCOCC4)CC[C@]32C)[C@@]1(C)CCCN | 1.45 | 3.11 |
| N#Cc1c(-c2ccc(Br)cc2)nc2n[nH]c(-c3ccc(Br)cc3)c2c1-c1ccc(C(F)(F)F)cc1 | 5.62 | 41 |

Reference: PubChem BioAssay (NCI)
